Reference: patent US20240384006A1 (Amgen, published 2024)

T1: human CD20 (human, UniProt P11836 1-297)
T1 sequence (looked up): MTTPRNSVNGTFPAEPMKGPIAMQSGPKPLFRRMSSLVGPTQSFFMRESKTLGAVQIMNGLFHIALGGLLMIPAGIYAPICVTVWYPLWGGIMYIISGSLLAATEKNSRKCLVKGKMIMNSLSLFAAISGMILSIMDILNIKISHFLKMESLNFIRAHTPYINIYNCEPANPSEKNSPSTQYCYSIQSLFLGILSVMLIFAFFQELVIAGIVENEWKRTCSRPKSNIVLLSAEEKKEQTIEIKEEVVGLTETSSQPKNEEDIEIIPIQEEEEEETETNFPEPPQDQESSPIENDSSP

T2: human CD22 (human, UniProt P20273 20-847)
T2 sequence (looked up): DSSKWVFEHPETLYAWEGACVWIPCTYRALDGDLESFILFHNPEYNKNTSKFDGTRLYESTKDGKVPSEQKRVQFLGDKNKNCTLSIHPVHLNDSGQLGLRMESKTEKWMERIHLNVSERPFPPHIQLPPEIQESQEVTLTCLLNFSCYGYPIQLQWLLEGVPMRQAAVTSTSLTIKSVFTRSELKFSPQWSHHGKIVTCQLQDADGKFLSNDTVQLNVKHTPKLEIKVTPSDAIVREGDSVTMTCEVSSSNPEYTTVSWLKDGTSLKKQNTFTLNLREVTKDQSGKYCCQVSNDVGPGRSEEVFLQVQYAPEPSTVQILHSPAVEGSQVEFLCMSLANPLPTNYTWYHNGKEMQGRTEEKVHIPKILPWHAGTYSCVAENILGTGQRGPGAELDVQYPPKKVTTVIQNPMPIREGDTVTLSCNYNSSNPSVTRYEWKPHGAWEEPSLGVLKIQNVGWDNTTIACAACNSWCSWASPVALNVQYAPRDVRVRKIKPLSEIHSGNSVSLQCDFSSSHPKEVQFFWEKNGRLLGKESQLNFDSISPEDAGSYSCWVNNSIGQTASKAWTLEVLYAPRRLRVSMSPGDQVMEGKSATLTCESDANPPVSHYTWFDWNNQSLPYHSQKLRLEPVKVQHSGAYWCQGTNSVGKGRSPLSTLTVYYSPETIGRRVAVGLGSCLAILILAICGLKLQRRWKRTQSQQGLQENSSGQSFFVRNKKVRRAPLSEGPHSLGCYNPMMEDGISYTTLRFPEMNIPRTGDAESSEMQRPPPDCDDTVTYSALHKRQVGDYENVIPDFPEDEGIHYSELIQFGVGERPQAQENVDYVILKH

T3: cyno CD20 (cyno, UniProt M4ZHZ6 1-297)
T3 construct: whole, on cells; also called cy CD20
T3 sequence: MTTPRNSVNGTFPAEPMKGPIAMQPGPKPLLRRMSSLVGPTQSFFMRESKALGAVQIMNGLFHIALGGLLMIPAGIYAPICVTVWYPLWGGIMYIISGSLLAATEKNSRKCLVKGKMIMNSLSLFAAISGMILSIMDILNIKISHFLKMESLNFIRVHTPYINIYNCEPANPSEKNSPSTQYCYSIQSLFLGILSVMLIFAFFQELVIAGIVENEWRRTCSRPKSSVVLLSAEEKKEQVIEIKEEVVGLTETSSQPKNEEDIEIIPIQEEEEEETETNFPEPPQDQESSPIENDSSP


How the values were obtained:
[1] = biological target: T1, human CD20; test: cell-based or functional assay
[2] = biological target: T2, human CD22; test: cell-based or functional assay
[3] = biological target: T3, cyno CD20; test: cyno Kd divided by human Kd, cell-based affinity on CHO cells
Experimental: (§1) Cell-based affinity of CD20 CD22 dual targeting antigen-binding molecules was determined by nonlinear regression (one site—specific binding) analysis. CHO cells expressing human CD20, cyno CD20, human CD22 or cyno CD22 were incubated with decreasing concentrations of CD20 CD22 dual targeting antigen-binding molecules (up to 800 nM, step 1:2 or 1:3, 11 steps) for 16 h at 4° C. Bound CD20 CD22 dual targeting antigen-binding molecules were detected with Alexa Fluor 488-conjugated AffiniPure Fab Fragment Goat Anti-Human IgG (H+L). Fixed cells were stained with DRAQ5, Far-Red Fluorescent Live-Cell Permeant DNA Dye and signals were detected by fluorescence cytometry. Respective equilibrium dissociation constant (Kd) values were calculated with the one site specific binding evaluation tool of the GraphPad Prism software. Mean Kd values and affinity gaps were calculated with Microsoft Excel.
(§2) Cell-based affinities of CD20 CD22 dual targeting antigen-binding molecules on target-transfected CHO cells were determined by nonlinear regression (one site—specific binding) analysis. Mean Kd values were calculated from three independent measurements. Affinity gaps were determined by dividing the cyno Kd by the human Kd.

[4] = biological target: T4, cyno CD22 (cyno); test: as above
T4 construct: whole, on cells; also called cy CD22
Experimental: as §1, §2

[5] = biological target: T3, cyno CD20; test: flow cytometry on CHO cells expressing cyno CD20, one site-specific binding fit, mean of three
Experimental: as §1, §2

[6] = biological target: T4, cyno CD22; test: flow cytometry on CHO cells expressing cyno CD22, one site-specific binding fit, mean of three
Experimental: as §1, §2

[7] = biological target: T1, human CD20; test: flow cytometry on CHO cells expressing human CD20, one site-specific binding fit, mean of three
Experimental: as §1, §2

[8] = biological target: T2, human CD22; test: flow cytometry on CHO cells expressing human CD22, one site-specific binding fit, mean of three
Experimental: as §1, §2

| Binder | EC50, 48-hour FACS based cytotoxicity assay, Oci-Ly 1 CD22 k.o. #A1 [1] [nM] | EC50, 48-hour FACS based cytotoxicity assay, Oci-Ly 1 CD20 k.o. #A5 [2] [nM] | Affinity gap Kdcy/Kdhu CD20 [3] | Affinity gap Kdcy/Kdhu CD22 [4] | Kd [5] [nM] | Kd [6] [nM] | Kd [7] [nM] | Kd [8] [nM] |
| --- | --- | --- | --- | --- | --- | --- | --- | --- |
| CD20 82-A3 CC × CD22 99-F10 CC × I2E × scFc (P6B) (bispecific antibody, Single chain: anti-CD20 scFv, anti-CD22 scFv, anti-CD3 scFv (I2E), scFc) EVQLVESGGGLVQPDRSLRLSCAASGFTFRDYAMHWVRQAPGKCLEWVSGIAWNSDSIGYADSVKGRFTISRDNAKNSLFLQMHSLRPEDTALYFCAKDTLYGSGSPRAFDIWGQGTMVTVSSGGGGSGGGGSGGGGSEIVLTQSPATLSVSPGERATLSCRASQSVNNNLAWYQQKPGQAPRLLIYGASTRATGIPARFSGSGSGTEFTLTISRLEPEDFAVYYCQQSNNWPITFGCGTRLEIKSGGGGSQVQLVESGGGVVQPGRSLRLSCAASGFTFSAYGMHWVRQAPGKCLEWVAVILYDGSNKYYADSVKGRFTISRDNSKNTLYLQMNSLRAEDTAVYYCARGSGWLQLGDYFDYWGQGTLVTVSSGGGGSGGGGSGGGGSQSALTQPPSVSGSPGQSITISCTGTSSDVGGYNYVSWYQQHPGKAPKLMIYEVSNRPSGVSNRFSGSKSGNTASLTISGLQAEDEADYYCSSYTSSSTLVFGCGTKLTVLSGGGGSEVQLVESGGGLVQPGGSLKLSCAASGFTFNKYAINWVRQAPGKGLEWVARIRSKYNNYATYYADAVKDRFTISRDDSKNTVYLQMNNLKTEDTAVYYCARAGNFGSSYISYWAYWGQGTLVTVSSGGGGSGGGGSGGGGSQTVVTQEPSLTVSPGGTVTIT[in this place about 80 residues]FGSGTKLTVLGGGG[in this place human IgG1 Fc with R292C N297G V302C (EU numbers)]GGGGSGGGGSGGGGSGGGGSGGGGSGGGGS[in this place human IgG1 Fc with R292C N297G V302C (EU numbers)] | 0.00012 | 0.0401 | 0.78 | 2.03 | 1.26 | 1150 | 1.62 | 567 |
| CD20 82-A3 CC × CD22 16-G4 CC × I2E × scFc (S5H) (bispecific antibody, Single chain: anti-CD20 scFv, anti-CD22 scFv, anti-CD3 scFv (I2E), scFc) EVQLVESGGGLVQPDRSLRLSCAASGFTFRDYAMHWVRQAPGKCLEWVSGIAWNSDSIGYADSVKGRFTISRDNAKNSLFLQMHSLRPEDTALYFCAKDTLYGSGSPRAFDIWGQGTMVTVSSGGGGSGGGGSGGGGSEIVLTQSPATLSVSPGERATLSCRASQSVNNNLAWYQQKPGQAPRLLIYGASTRATGIPARFSGSGSGTEFTLTISRLEPEDFAVYYCQQSNNWPITFGCGTRLEIKSGGGGSQVQLVQSGAEVKKPGASVKVSCKASGYTFTSYGISWVRQAPGQCLEWMGWISAYNGNTIYAQKFQGRVTLTRDTSTSTAYMELRSLRSDDTAMYYCARDPDYYGSGSYSDYWGQGTLVTVSSGGGGSGGGGSGGGGSEIVLTQSPATLSVSPGERATLSCRASQSVSSNLAWYQQKPGQAPRLLIYGASSRATGIPARFSGSGSGTEFTLTISSLQSEDFAVYYCQQYHSWPLLTFGCGTKVEIKSGGGGSEVQLVESGGGLVQPGGSLKLSCAASGFTFNKYAINWVRQAPGKGLEWVARIRSKYNNYATYYADAVKDRFTISRDDSKNTVYLQMNNLKTEDTAVYYCARAGNFGSSYISYWAYWGQGTLVTVSSGGGGSGGGGSGGGGSQTVVTQEPSLTVSPGGTVTIT[in this place about 80 residues]FGSGTKLTVLGGGG[in this place human IgG1 Fc with R292C N297G V302C (EU numbers)]GGGGSGGGGSGGGGSGGGGSGGGGSGGGGS[in this place human IgG1 Fc with R292C N297G V302C (EU numbers)] | 0.00345 | 0.00531 | 0.64 | 7.69 | 1.74 | 2.46 | 2.72 | 0.32 |
| CD20 82-A3 CC × CD22 17-F6 CC × I2E × scFc (W6V) (bispecific antibody, Single chain: anti-CD20 scFv, anti-CD22 scFv, anti-CD3 scFv (I2E), scFc) EVQLVESGGGLVQPDRSLRLSCAASGFTFRDYAMHWVRQAPGKCLEWVSGIAWNSDSIGYADSVKGRFTISRDNAKNSLFLQMHSLRPEDTALYFCAKDTLYGSGSPRAFDIWGQGTMVTVSSGGGGSGGGGSGGGGSEIVLTQSPATLSVSPGERATLSCRASQSVNNNLAWYQQKPGQAPRLLIYGASTRATGIPARFSGSGSGTEFTLTISRLEPEDFAVYYCQQSNNWPITFGCGTRLEIKSGGGGSQVQLVQSGAEVKKPGASVKVSCKASGYTFTTYGISWVRQAPGQCLEWMGWISPKNGVTTYAQKFQGRVTITADESTSTAYMELSRLTSDDTAMYYCARDPDYYGSGSYSDYWGQGTLVTVSSGGGGSGGGGSGGGGSEIVLTQSPATLSVSPGERATLSCRASQSVSSNLAWYQQKPGQAPRLLIYGASSRATGIPARFSGSGSGTEFTLTISSLQSEDFAVYYCQQYHSWPLLTFGCGTKVEIKSGGGGSEVQLVESGGGLVQPGGSLKLSCAASGFTFNKYAINWVRQAPGKGLEWVARIRSKYNNYATYYADAVKDRFTISRDDSKNTVYLQMNNLKTEDTAVYYCARAGNFGSSYISYWAYWGQGTLVTVSSGGGGSGGGGSGGGGSQTVVTQEPSLTVSPGGTVTIT[in this place about 80 residues]FGSGTKLTVLGGGG[in this place human IgG1 Fc with R292C N297G V302C (EU numbers)]GGGGSGGGGSGGGGSGGGGSGGGGSGGGGS[in this place human IgG1 Fc with R292C N297G V302C (EU numbers)] | 0.00032 | 0.00808 | 0.6 | 16.6 | 1.32 | 3.65 | 2.21 | 0.22 |
